Experimental data from PubChem BioAssay AID493208 (National Center for Advancing Translational Sciences (NCATS), 2011).
In all, about 44,000 compounds went through this assay and about 340 (0.77%) were called active. Roughly 5% stayed inconclusive and do not appear here. The call rests on the fitted dose curve; in most records, active means well fitted inhibition curve with a large enough effect; inconclusive means small, poorly fitted or top-dose-only effect; inactive means flat fitted curve, though single readings scatter. The list shows a part of the results.

Assay: Acumen qHTS Assay for Inhibitors of the mTORC1 Signaling Pathway in MEF (Tsc2-/-, p53-/-) Cells: Sytravon;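 further: plate controls were DMSO for no effect and rapamycin for full effect; nearly all actives have a fitted effect of over 50% in size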
Details: phospho-rpS6 immunofluorescence/PI, 24 h; series mostly up to 38.3 µM; activity change, negative = inhibition: at the top concentration
How it was run: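 Immunofluorescence of rpS6 phosphorylation in Tsc2-/-, p53-/- MEFs after 24 h compound exposure, normalized to propidium iodide signal. Activity is expressed as % positive cells, thresholded with 7.5 nM rapamycin.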

Activity change, negative = inhibition, inactive:
CCN(CC)CCNC(=O)c1ccc2c(c1)NC(=O)C(CS(=O)(=O)Cc1ccc(F)cc1Cl)N2 (stereo not drawn) 5.83%
Cc1nn(C)c2c1c(-c1ccccc1)cc(=O)n2C(C)C(=O)NCCc1ccc(Cl)cc1 (stereo not drawn) 5.31%
COc1ccc(-c2ccc3c(N)c(C(=O)Nc4ccc(C)cc4C)sc3n2)cc1OC -7.69%
COc1ccc(S(=O)(=O)NCC(c2ccco2)N2CCN(c3ccccc3F)CC2)cc1OC (stereo not drawn) -1.24%
CC(C)c1nc2ccc(C(=O)NCc3ccc(F)cc3)cc2o1 3.4%
CC1CCN(C(=O)c2ccccc2NC(=O)c2nsc3ccccc23)CC1 2.71%
CCc1cccc(NC(=O)C2CCCN2S(=O)(=O)c2ccc3c(c2)n(C)c(=O)c(=O)n3C)c1 (stereo not drawn) 11.7%
COc1ccc(-n2c(SCC(=O)Nc3cc(C)cc(C)c3)nc3c(oc4ccccc43)c2=O)cc1 -5.65%
COc1ccc(CNC(=O)CCc2c(C)nn(-c3ccc(N4CCCC4)nn3)c2C)c(OC)c1 3.95%
CCOc1ccc(-c2cc(NC(=O)c3c(F)cccc3F)c(C(=O)OC)s2)cc1 -16.2%
Cc1ccc(Cl)cc1NC(=O)c1cnn2c(C(F)F)cc(-c3ccccc3)nc12 -28.8%
COc1ccc(NC(=O)c2cc(S(=O)(=O)N3CCCCC3)c[nH]2)cc1Cl -3.9%
COC(=O)c1c(NC(=O)C(C)Oc2ccc(Cl)cc2Cl)sc2c1CCCC2 (stereo not drawn) 3.96%
Cc1cc(C)c(/C=C/c2onc(C)c2S(=O)(=O)N2CCC(C(=O)NCC(C)c3ccccc3)CC2)c(C)c1 (stereo not drawn) -13%
Cc1cc(NC(=O)CC(C)C)cc(-c2nc3ncccc3o2)c1O 1.54%
O=C(CCS(=O)(=O)c1cc2c3c(c1)CCN3C(=O)CC2)NCc1ccc(Cl)cc1 -5.88%
COC(=O)CSc1ccc2nnc(CCNS(=O)(=O)c3ccc(C)cc3)n2n1 -0.463%
CCOC(=O)C1=C(CN2CCN(c3ccccc3F)CC2)NC(=O)NC1c1ccc(OC)cc1 (stereo not drawn) 2.92%
CCc1cccc(C)c1Nc1c(-c2cccc(O)c2)nc2cnccn12 1.65%
CCOc1ccccc1NC(=O)Cn1nc2c3cc(F)ccc3n(Cc3cccc(C)c3)cc-2c1=O -1.4%
COc1cccc(NC(=O)CCc2nc(-c3cc(OC)c(OC)c(OC)c3)no2)c1 0.0842%
COc1ccc(CCNC(=O)c2cc(-c3ccc(Cl)cc3)on2)cc1OC -1.02%
Cc1ccc(C)c(NC(=O)C(=O)NCCc2csc(-c3cccc(F)c3)n2)c1 0.932%
Cn1c(=O)cc(SCC(=O)Nc2cccc(C#N)c2)c2ccc(Cl)cc21 -1.63%
CCOC(=O)c1ccc(NC(=O)c2cc3c(=O)n(C)c4ccccc4c3n2C)cc1 4.28%
COc1cc2c(C(=O)N3CCN(c4ccc(C)cc4)C(C)C3)cn(CC(C)C)c(=O)c2cc1OC (stereo not drawn) 6.79%
Cc1nc2ccccn2c(=O)c1NC(=O)c1ccccc1Cl -4.78%
COc1ccc(N2CCN(C(=O)Cc3noc4ccc(C)cc34)CC2)cc1 -0.818%
CCc1ccc(NC(=O)Cn2ccn(-c3cccc(Cl)c3)c(=O)c2=O)cc1 4.6%
COc1ccc(C(=O)N2CCC(c3ccncc3)CC2)cc1OC -9%
Cc1ccc(CN2CCc3nc(N4CCN(C)CC4)ncc3C2)cc1 0%
Cc1nc2sccn2c(=O)c1S(=O)(=O)NCc1ccccc1 -7%
Cc1ccc(C)c(N2CCN(C(=O)c3ccc4c(c3)c(C)c(C)n4C)CC2)c1 -6.85%
COC(=O)c1ccc(OC)c(CN2CCCN(Cc3ccc(C)cc3)S2(=O)=O)c1 -3.61%
COc1ccc(Cl)cc1C(=O)NCC(c1ccc(N(C)C)cc1)N1CCOCC1 (stereo not drawn) 19.6%
Cc1cccc(C)c1OCC(=O)N(Cc1ccc(Cl)cc1)CC1CCCO1 (stereo not drawn) 0.556%
CC(C)c1nn2c(=O)cc(COC(=O)c3ccccc3NC(=O)c3cccs3)nc2s1 3.79%
Cn1c(=O)c2c(nc(NCCc3ccccc3)n2Cc2ccc(Cl)c(Cl)c2)n(C)c1=O -10%
CC1CCCN(c2csc3ccccc3c2=O)C1 (stereo not drawn) -7.12%
COc1ccc(S(=O)(=O)NCCc2cn3ccsc3n2)cc1OC -12.8%
CCOc1ccc(N(Cc2cc3cc(C)ccc3[nH]c2=O)C(=O)c2cccc(Cl)c2)cc1 -0.638%
CCOC(=O)C1CCN(CCC(=O)Nc2ccccc2Cl)CC1 -0.184%
Cc1ccc(C)c(CN2CCC(CNC(=O)Cn3ncc4c([nH]c5ccccc54)c3=O)CC2)c1 -6.83%
O=C(NCCCN1CCOCC1)c1ccc2c(c1)N(Cc1ccccc1)C(=O)c1ccccc1S2 6.98%
CCOc1ccc(NC(=O)NC(C)c2c(-n3cccc3)sc(C)c2C)cc1 (stereo not drawn) -1.41%
O=C(Cn1nc(N2CCN(c3ccccc3)CC2)ccc1=O)NCc1cccc(Cl)c1 -5.91%
Cc1cccc(OCCCCn2nnc3sc4c(c3c2=O)CCC(C)C4)c1 (stereo not drawn) -3.15%
CCOc1ccccc1CNC(=O)CN1C(=O)CCCc2ccccc21 -8.29%
CCOC(=O)CSc1nc2sc3c(c2c(=O)n1Cc1ccccc1)CC(C)CC3 (stereo not drawn) 7.91%
Cc1ccc(-n2ncc3c(NCCc4ccccc4)ncnc32)cc1C -27.9%
O=C(COc1ccccc1)Nc1ccc(C(=O)OCc2cc(=O)n3nc(C4CC4)sc3n2)cc1 3.65%
Cc1nc2nc(SCC(=O)NCc3ccccc3)nn2c(C)c1Cc1ccccc1Cl -23.9%
CCN(CC)CCNC(=O)C1CCN(S(=O)(=O)c2c(C)noc2/C=C/c2ccccc2F)CC1 9.85%
Cc1ccc(OCCSc2nc3ccc(NC(=O)COc4ccc(F)cc4)cc3s2)cc1 -7.24%
O=C(Cc1cccs1)NC1CC(=O)N(c2ccccc2)C1 (stereo not drawn) -3.87%
CCc1cccc(C)c1NC(=O)CN1CCCN(Cc2ccc(C)cc2)S1(=O)=O -16.5%
COc1ccc(-c2c(C)nn3c(C(F)(F)F)cc(-c4ccc(Br)cc4)nc23)cc1 -1.99%
Cc1cc(C)n2c(Nc3c(C)cccc3C)c(-c3ccsc3)nc2n1 4.41%
O=C(CN1CCCN(Cc2ccccc2Cl)S1(=O)=O)Nc1ccc2c(c1)OCCO2 0%
CCOC(=O)c1cc(-c2ccc(F)cc2)n(CC(=O)NC2CCCCC2)c1C -1%
CCOc1ccc(-c2ccc(NS(=O)(=O)c3cc(C)c(C)cc3C)cc2)nn1 -4.21%
Cc1ccccc1CN1CCc2nc(Nc3ccc4c(c3)OCCO4)ncc2C1 0%
CCOc1ccc(CCNC(=O)c2ccc(CS(=O)(=O)Cc3ccccc3Cl)o2)cc1OCC 4.71%
